# Reference: the supplement of paper PMC8728848
# The other results are listed elsewhere or left out.
# B1: LFA (Limax flavus) (protein)
# chain: MSVLFLAASFLLLASFELVAAQGCPRQDPGDWIVIQRRLNADVNFYRGWADYKHGFGDLRCNFWLGNEKIHQLTSHGRYKLRVEFTFNNKSYFAEYSTFKILGEADKYKLQVGGYSGNAGDALTFHNGMAFSTNDRDNDADSIDCAKVYHGAWWYKTCHESNLNGKWGSKKYGEGLNWKAKTTFTATATSSLLKIKALK
# What was measured:
# Experiment in all cases: glycan array binding signal (z-score within array); higher = stronger binding
# Settings in all cases: glycan notation: IUPAC condensed, linker removed
# Neu5Ac(a2-3)Gal = molecular target: Neu5Ac(a2-3)Gal
# In short: (§1)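 Glycan array data were curated from 3228 arrays in the Consortium for Functional Glycomics database and kept only where the protein sequence was available. Glycan names were converted to IUPAC-condensed notation, and columns mapping to the same glycan were averaged. The binding signal is a within-array Z-score, averaged across arrays of the same protein sequence at different concentrations or buffers and across linkers. Negative Z-scores can be read as non-binding.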
# [1] = molecular target: Neu5Ac(a2-3)Gal(b1-3)GalNAc
# In short: as §1
# [2] = molecular target: Neu5Ac(a2-3)Gal(b1-3)GalNAc(b1-3)Gal(a1-4)Gal(b1-4)Glc
# In short: as §1
# [3] = molecular target: Neu5Ac(a2-3)Gal(b1-3)GalNAc(b1-4)[Neu5Ac(a2-3)]Gal(b1-4)Glc
# In short: as §1
# [4] = molecular target: Neu5Ac(a2-3)Gal(b1-3)GalNAc(b1-4)[Neu5Ac(a2-8)Neu5Ac(a2-3)]Gal(b1-4)Glc
# In short: as §1
# [5] = molecular target: Neu5Ac(a2-3)Gal(b1-3)GalNAc6S
# In short: as §1
# [6] = molecular target: Neu5Ac(a2-3)Gal(b1-3)GlcNAc
# In short: as §1
# [7] = molecular target: Neu5Ac(a2-3)Gal(b1-3)GlcNAc(b1-2)Man
# In short: as §1
# [8] = molecular target: Neu5Ac(a2-3)Gal(b1-3)GlcNAc(b1-2)Man(a1-3)[GlcNAc(b1-4)][Neu5Ac(a2-3)Gal(b1-3)GlcNAc(b1-2)Man(a1-6)]Man(b1-4)GlcNAc(b1-4)GlcNAc
# In short: as §1
# [9] = molecular target: Neu5Ac(a2-3)Gal(b1-3)GlcNAc(b1-2)Man(a1-3)[Neu5Ac(a2-3)Gal(b1-3)GlcNAc(b1-2)Man(a1-6)]Man(b1-4)GlcNAc(b1-4)GlcNAc
# In short: as §1
# [10] = molecular target: Neu5Ac(a2-3)Gal(b1-3)GlcNAc(b1-3)Gal(b1-3)GlcNAc
# In short: as §1
# [11] = molecular target: Neu5Ac(a2-3)Gal(b1-3)GlcNAc(b1-3)Gal(b1-4)GlcNAc
# In short: as §1
# [12] = molecular target: Neu5Ac(a2-3)Gal(b1-3)GlcNAc(b1-3)GalNAc
# In short: as §1
# [13] = molecular target: Neu5Ac(a2-3)Gal(b1-3)GlcNAc(b1-4)Gal(b1-4)Glc
# In short: as §1
# [14] = molecular target: Neu5Ac(a2-3)Gal(b1-3)GlcNAc(b1-6)GalNAc
# In short: as §1
# [15] = molecular target: Neu5Ac(a2-3)Gal(b1-3)GlcNAc6S
# In short: as §1
# [16] = molecular target: Neu5Ac(a2-3)Gal(b1-3)[Fuc(a1-4)]GlcNAc
# In short: as §1
# [17] = molecular target: Neu5Ac(a2-3)Gal(b1-3)[Fuc(a1-4)]GlcNAc(b1-3)Gal(b1-3)[Fuc(a1-4)]GlcNAc
# In short: as §1
# [18] = molecular target: Neu5Ac(a2-3)Gal(b1-3)[Fuc(a1-4)]GlcNAc(b1-3)Gal(b1-4)[Fuc(a1-3)]GlcNAc
# In short: as §1
# [19] = molecular target: Neu5Ac(a2-3)Gal(b1-3)[GlcNAc(b1-6)]GalNAc
# In short: as §1
# [20] = molecular target: Neu5Ac(a2-3)Gal(b1-3)[Neu5Ac(a2-6)]GalNAc
# In short: as §1
# [21] = molecular target: Neu5Ac(a2-3)Gal(b1-3)[Neu5Ac(a2-6)]GlcNAc(b1-3)[Fuc(a1-3)[Gal(b1-4)]GlcNAc(b1-6)]Gal(b1-4)Glc
# In short: as §1
# [22] = molecular target: Neu5Ac(a2-3)Gal(b1-3)]Neu5Ac(a2-3)Gal(b1-4)]GlcNAc
# In short: as §1
# Neu5Ac(a2-3)Gal(b1-4)Glc = molecular target: Neu5Ac(a2-3)Gal(b1-4)Glc
# In short: as §1
# [23] = molecular target: Neu5Ac(a2-3)Gal(b1-4)GlcNAc
# In short: as §1
# [24] = molecular target: Neu5Ac(a2-3)Gal(b1-4)GlcNAc(b1-2)Man
# In short: as §1
# [25] = molecular target: Neu5Ac(a2-3)Gal(b1-4)GlcNAc(b1-2)Man(a1-3)[GlcNAc(b1-4)][Neu5Ac(a2-3)Gal(b1-4)GlcNAc(b1-2)Man(a1-6)]Man(b1-4)GlcNAc(b1-4)GlcNAc
# In short: as §1
# [26] = molecular target: Neu5Ac(a2-3)Gal(b1-4)GlcNAc(b1-2)Man(a1-3)[Neu5Ac(a2-3)Gal(b1-4)GlcNAc(b1-2)Man(a1-6)]Man(b1-4)GlcNAc(b1-4)GlcNAc
# In short: as §1
# [27] = molecular target: Neu5Ac(a2-3)Gal(b1-4)GlcNAc(b1-2)Man(a1-3)[Neu5Ac(a2-3)Gal(b1-4)GlcNAc(b1-2)Man(a1-6)]Man(b1-4)GlcNAc(b1-4)[Fuc(a1-6)]GlcNAc
# In short: as §1
# [28] = molecular target: Neu5Ac(a2-3)Gal(b1-4)GlcNAc(b1-2)Man(a1-3)[Neu5Ac(a2-6)Gal(b1-4)GlcNAc(b1-2)Man(a1-6)]Man(b1-4)GlcNAc(b1-4)GlcNAc
# In short: as §1
# [29] = molecular target: Neu5Ac(a2-3)Gal(b1-4)GlcNAc(b1-2)[Neu5Ac(a2-3)Gal(b1-4)GlcNAc(b1-4)]Man(a1-3)[GlcNAc(b1-4)][Neu5Ac(a2-3)Gal(b1-4)GlcNAc(b1-2)[Neu5Ac(a2-3)Gal(b1-4)GlcNAc(b1-6)]Man(a1-6)]Man(b1-4)GlcNAc(b1-4)GlcNAc
# In short: as §1
# [30] = molecular target: Neu5Ac(a2-3)Gal(b1-4)GlcNAc(b1-2)[Neu5Ac(a2-3)Gal(b1-4)GlcNAc(b1-4)]Man(a1-3)[GlcNAc(b1-4)][Neu5Ac(a2-3)Gal(b1-4)GlcNAc(b1-4)Man(a1-6)]Man(b1-4)GlcNAc(b1-4)GlcNAc
# In short: as §1
# [31] = molecular target: Neu5Ac(a2-3)Gal(b1-4)GlcNAc(b1-2)[Neu5Ac(a2-3)Gal(b1-4)GlcNAc(b1-6)]Man(a1-6)[Neu5Ac(a2-3)Gal(b1-4)GlcNAc(b1-2)Man(a1-3)]Man(b1-4)GlcNAc(b1-4)GlcNAc
# In short: as §1
# [32] = molecular target: Neu5Ac(a2-3)Gal(b1-4)GlcNAc(b1-2)[Neu5Ac(a2-3)Gal(b1-4)GlcNAc(b1-6)]Man(a1-6)[Neu5Ac(a2-3)Gal(b1-4)GlcNAc(b1-2)Man(a1-3)][GlcNAc(b1-4)]Man(b1-4)GlcNAc(b1-4)GlcNAc
# In short: as §1
# [33] = molecular target: Neu5Ac(a2-3)Gal(b1-4)GlcNAc(b1-3)Gal
# In short: as §1
# [34] = molecular target: Neu5Ac(a2-3)Gal(b1-4)GlcNAc(b1-3)Gal(b1-3)GlcNAc
# In short: as §1
# [35] = molecular target: Neu5Ac(a2-3)Gal(b1-4)GlcNAc(b1-3)Gal(b1-4)GlcNAc
# In short: as §1
# [36] = molecular target: Neu5Ac(a2-3)Gal(b1-4)GlcNAc(b1-3)Gal(b1-4)GlcNAc(b1-2)Man(a1-3)[Neu5Ac(a2-3)Gal(b1-4)GlcNAc(b1-3)Gal(b1-4)GlcNAc(b1-2)Man(a1-6)]Man(b1-4)GlcNAc(b1-4)GlcNAc
# In short: as §1
# [37] = molecular target: Neu5Ac(a2-3)Gal(b1-4)GlcNAc(b1-3)Gal(b1-4)GlcNAc(b1-3)Gal(b1-4)GlcNAc
# In short: as §1
# [38] = molecular target: Neu5Ac(a2-3)Gal(b1-4)GlcNAc(b1-3)Gal(b1-4)GlcNAc(b1-3)Gal(b1-4)GlcNAc(b1-2)Man(a1-3)[Neu5Ac(a2-3)Gal(b1-4)GlcNAc(b1-3)Gal(b1-4)GlcNAc(b1-3)Gal(b1-4)GlcNAc(b1-2)Man(a1-6)]GalNAc
# In short: as §1
# [39] = molecular target: Neu5Ac(a2-3)Gal(b1-4)GlcNAc(b1-3)Gal(b1-4)GlcNAc(b1-3)GalNAc
# In short: as §1
# [40] = molecular target: Neu5Ac(a2-3)Gal(b1-4)GlcNAc(b1-3)Gal(b1-4)GlcNAc(b1-3)[Neu5Ac(a2-3)Gal(b1-4)GlcNAc(b1-3)Gal(b1-4)GlcNAc(b1-6)]GalNAc
# In short: as §1
# [41] = molecular target: Neu5Ac(a2-3)Gal(b1-4)GlcNAc(b1-3)Gal(b1-4)GlcNAc(b1-6)[Gal(b1-3)]GalNAc
# In short: as §1
# [42] = molecular target: Neu5Ac(a2-3)Gal(b1-4)GlcNAc(b1-3)Gal(b1-4)[Fuc(a1-3)]GlcNAc
# In short: as §1
# [43] = molecular target: Neu5Ac(a2-3)Gal(b1-4)GlcNAc(b1-3)GalNAc
# In short: as §1
binder,measurement,setting,value
B1,glycan array binding signal (z-score),Neu5Ac(a2-3)Gal,-0.178
same,glycan array binding signal (z-score),[1],0.174
same,glycan array binding signal (z-score),[2],0.046
same,glycan array binding signal (z-score),[3],-0.259
same,glycan array binding signal (z-score),[4],-0.184
same,glycan array binding signal (z-score),[5],-0.266
same,glycan array binding signal (z-score),[6],-0.15
same,glycan array binding signal (z-score),[7],-0.17
same,glycan array binding signal (z-score),[8],0.001
same,glycan array binding signal (z-score),[9],-0.006
same,glycan array binding signal (z-score),[10],-0.139
same,glycan array binding signal (z-score),[11],-0.22
same,glycan array binding signal (z-score),[12],-0.113
same,glycan array binding signal (z-score),[13],-0.271
same,glycan array binding signal (z-score),[14],-0.335
same,glycan array binding signal (z-score),[15],0.704
same,glycan array binding signal (z-score),[16],-0.355
same,glycan array binding signal (z-score),[17],-0.228
same,glycan array binding signal (z-score),[18],-0.306
same,glycan array binding signal (z-score),[19],-0.335
same,glycan array binding signal (z-score),[20],-0.187
same,glycan array binding signal (z-score),[21],-0.374
same,glycan array binding signal (z-score),[22],-0.309
same,glycan array binding signal (z-score),Neu5Ac(a2-3)Gal(b1-4)Glc,-0.22
same,glycan array binding signal (z-score),[23],-0.238
same,glycan array binding signal (z-score),[24],0.158
same,glycan array binding signal (z-score),[25],-0.051
same,glycan array binding signal (z-score),[26],-0.34
same,glycan array binding signal (z-score),[27],-0.13
same,glycan array binding signal (z-score),[28],-0.047
same,glycan array binding signal (z-score),[29],-0.357
same,glycan array binding signal (z-score),[30],-0.317
same,glycan array binding signal (z-score),[31],-0.157
same,glycan array binding signal (z-score),[32],-0.068
same,glycan array binding signal (z-score),[33],-0.125
same,glycan array binding signal (z-score),[34],-0.206
same,glycan array binding signal (z-score),[35],-0.334
same,glycan array binding signal (z-score),[36],2.77
same,glycan array binding signal (z-score),[37],-0.231
same,glycan array binding signal (z-score),[38],4.29
same,glycan array binding signal (z-score),[39],-0.125
same,glycan array binding signal (z-score),[40],0.151
same,glycan array binding signal (z-score),[41],0.323
same,glycan array binding signal (z-score),[42],-0.267
same,glycan array binding signal (z-score),[43],-0.299
